Results reported in PubChem BioAssay AID1452 (National Center for Advancing Translational Sciences (NCATS), 2008).
In all, about 150,000 compounds went through this assay and about 190 (0.13%) were called active. Inconclusive results, whose numbers are uncertain, are shown with a selection of clear calls. Calls follow the shape of the dose curve; as a rule, active = well fitted inhibition curve with a large enough effect; inconclusive = small, poorly fitted or top-dose-only effect; inactive = flat fitted curve, though single readings scatter. A potency beside an inconclusive call is a rough fit, not a confirmed value.
Also: nearly all actives have a fitted effect of over 55% in size.
Potency is read from the fitted curve at half-maximal effect; tags tell the direction and shape of the fitted curve.

The compounds below were run against Polyunsaturated fatty acid lipoxygenase ALOX12 (Homo sapiens) (UniProt P18054) (assay: qHTS Assay for Inhibitors of 12-hLO (12-human lipoxygenase)). Settings: purified 12-hLO, xylenol orange hydroperoxide absorbance; series mostly up to 57.1 µM.
Chain of UniProt P18054 (P18054 whole entry, looked up): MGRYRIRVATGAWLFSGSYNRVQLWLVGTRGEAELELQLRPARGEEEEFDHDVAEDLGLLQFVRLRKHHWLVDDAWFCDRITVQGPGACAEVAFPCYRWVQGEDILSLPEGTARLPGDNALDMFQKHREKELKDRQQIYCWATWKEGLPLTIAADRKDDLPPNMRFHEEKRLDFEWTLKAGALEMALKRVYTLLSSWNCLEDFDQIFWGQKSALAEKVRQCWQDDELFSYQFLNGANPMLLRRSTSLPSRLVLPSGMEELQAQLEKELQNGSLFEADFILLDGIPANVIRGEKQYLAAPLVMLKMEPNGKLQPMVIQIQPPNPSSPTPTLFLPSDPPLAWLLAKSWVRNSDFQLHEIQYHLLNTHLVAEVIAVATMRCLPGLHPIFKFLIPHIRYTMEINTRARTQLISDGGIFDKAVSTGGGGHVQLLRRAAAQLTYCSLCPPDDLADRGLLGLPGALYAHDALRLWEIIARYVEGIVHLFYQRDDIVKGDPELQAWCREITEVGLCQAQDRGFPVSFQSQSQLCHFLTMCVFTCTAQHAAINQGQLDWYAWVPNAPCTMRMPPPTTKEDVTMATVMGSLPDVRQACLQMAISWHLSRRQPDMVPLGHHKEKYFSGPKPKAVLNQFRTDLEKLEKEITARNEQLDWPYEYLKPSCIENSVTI
Method in brief: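 Purified human 12hLO (150 nM), preincubated 15 min with compound, then 40 uM arachidonic acid for 30 min, room temperature, Hepes pH 7.0 with 0.01% Triton X-100. Hydroperoxide detected by ferrous iron/xylenol orange; 573/405 nm absorbance ratio gives reaction progress.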
In the case of `CCOc1ccc2c(c1)-c1c(ssc1=S)C(C)(C)N2C(=O)c1ccco1`, the Potency is reported as inconclusive: 20 µM [inhibitor, single point]. In the case of `C=CCn1c(O)c(N=NC(=S)Nc2cccc(C)c2)c2ccccc21`, the Potency is reported as inconclusive: 1.58 µM [inhibitor, full curve, poor fit]. With `CC(C)c1ccc(S(=O)(=O)N2CCN(C(=S)NCc3ccco3)CC2)cc1` the Potency was “inactive”. `Cc1coc2c1C(=O)C(=O)c1c-2ccc2c1CCCC2(C)C` was tested, and the Potency was inconclusive: 22.4 µM [inhibitor, single point]. With `Cc1ccc(C(=O)Cn2cnc3ccccc3c2=O)cc1C` the Potency was inconclusive: 15.8 µM [inhibitor, partial curve]. `Cn1c(/N=C/c2c(O)ccc3ccccc23)nc2ccccc21` was tested, and the Potency was inconclusive: 5.01 µM [inhibitor, full curve]. For `O=C(CSc1nnc(SCc2ccc(Cl)cc2)s1)N/N=C/c1c[nH]c2ccccc12`, the Potency was “inactive”. With `Cc1ccc(S(=O)(=O)N(C)CC(=O)N2CCCC2)cc1` the Potency was “inactive”. `COc1ccc(Cl)cc1S(=O)(=O)N1CCN(C(=O)c2ccco2)CC1` was tested, and the Potency was inconclusive: 8.91 µM [inhibitor, single point]. `CCOC(=O)c1nn(-c2ccc(C)c(C)c2)c(=O)c2c(N)scc12` was tested, and the Potency was inconclusive: 35.5 µM [inhibitor, single point]. In the case of `COC(=O)c1ccc(CNC(=O)/C=C/c2cc([N+](=O)[O-])ccc2OC(F)F)cc1`, the Potency is reported as “inactive”. `CN(Cc1ccccc1)S(=O)(=O)c1ccc(NC(=S)NC(=O)C2CCCC2)cc1` was tested, and the Potency was inconclusive: 20 µM [inhibitor, single point]. In the case of `CC(=O)C(=Nc1ccccc1Cl)NNc1ccc(Cl)cc1`, the Potency is reported as inconclusive: 5.01 µM [inhibitor, full curve, poor fit]. For `OCCN(Cc1ccccc1)Cc1ccc(Cl)cc1Cl`, the Potency was “inactive”. With `O=C1SC(c2ccccc2)=C/C1=C\N1CCCCC1` the Potency was inconclusive: 22.4 µM [inhibitor, partial curve]. With `CNc1nnc(-c2ccc(N(C)C)cc2)s1` the Potency was “inactive”. `COc1cc2[nH]c3c(N4CCN(c5ccc(Cl)cc5)CC4)ncnc3c2cc1OC` was tested, and the Potency was inconclusive: 28.2 µM [inhibitor, partial curve]. With `O=C(NC(=S)Nc1ccc(Oc2ccccc2)cc1)c1ccc(Cl)cc1` the Potency was inconclusive: 22.4 µM [inhibitor, single point]. With `CCOc1ccccc1NC(=O)N1CCCC(c2nc3c(nnn3Cc3ccc(C)cc3)c(=O)[nH]2)C1` (stereo not given) the Potency was inconclusive: 31.6 µM [inhibitor, partial curve]. In the case of `O=C(Nc1nnc(-c2ccccc2SCc2ccccc2)s1)Nc1ccccc1F`, the Potency is reported as “inactive”. For `CCN(CC)S(=O)(=O)c1ccc(NCC2COc3ccccc3O2)c([N+](=O)[O-])c1` (stereo not given), the Potency was “inactive”. With `CC(=O)N1CCC2(CCCN(C(=O)Nc3cccc(C#N)c3)C2)CC1` the Potency was “inactive”. `COc1ccc(C2=NN(C(=S)Nc3ccccc3)C(c3ccccc3)C2)cc1` (stereo not given) was tested, and the Potency was “inactive”. For `COc1ccc(S(=O)(=O)N(C(=O)c2ccco2)c2cc3sc(=O)oc3c3ccccc23)cc1`, the Potency was inconclusive: 11.2 µM [inhibitor, partial curve]. With `COc1ccc(-c2cn(-c3ccc(OC)cc3)c(=S)[nH]2)cc1` the Potency was inconclusive: 12.6 µM [inhibitor, partial curve]. In the case of `CC(C)c1ccc(NC(=S)NCc2cccs2)cc1`, the Potency is reported as inconclusive: 17.8 µM [inhibitor, single point]. `Cc1cc(O)c(C(C)(C)C)cc1Sc1cc(C(C)(C)C)c(O)cc1C` was tested, and the Potency was “inactive”. `Cc1ccc(Sc2ccc(/C=N/O)cc2[N+](=O)[O-])cc1` was tested, and the Potency was inconclusive: 15.8 µM [inhibitor, partial curve]. `COc1ccc(CCNC(=S)Nc2cc(C)ccc2C)cc1` was tested, and the Potency was active: 7.94 µM. With `O=C1c2ccccc2C(=O)C12OC2c1ccc(Cl)cc1` (stereo not given) the Potency was inconclusive: 11.2 µM [inhibitor, partial curve]. With `Cc1ccc(CN2CCN(CC(=O)NC(C)CCc3ccccc3)C2=O)cc1` (stereo not given) the Potency was “inactive”. In the case of `O=C(/C=C(\O)c1ccc(Cl)cc1)C(=O)NNC(=O)C(O)(c1ccccc1)c1ccccc1`, the Potency is reported as inconclusive: 15.8 µM [inhibitor, partial curve]. In the case of `CCOc1cc(C2CC(=O)N3CN(C4CCCCC4)CSC3=C2C#N)ccc1O` (stereo not given), the Potency is reported as inconclusive: 22.4 µM [inhibitor, single point]. In the case of `O=c1/c(=C/c2ccco2)sc2n1CN(c1cccc(Br)c1)CN=2`, the Potency is reported as inconclusive: 39.8 µM [inhibitor, single point]. With `C[C@@H](C(=O)Nc1ccc2ccccc2c1)[C@@H]1C[C@@]1(C)[C@@H](NS(=O)(=O)c1ccc(-c2ccccc2)cc1)c1ccccc1` the Potency was “inactive”. For `CCOc1ccc2c(c1)nc(SCC(=O)c1ccc(Br)s1)n2C`, the Potency was inconclusive: 15.8 µM [inhibitor, single point]. With `O=C(NC(=S)Nc1ccccc1N1CCOCC1)c1cccs1` the Potency was inconclusive: 17.8 µM [inhibitor, partial curve]. `COc1ccccc1/C=C/C(=O)NC(=S)NC(C)C` was tested, and the Potency was inconclusive: 3.55 µM [inhibitor, full curve]. With `CCOC(=O)N1CCC(N2CCN(c3cc(C)ccc3C)CC2)CC1` the Potency was inconclusive: 3.55 µM [inhibitor, partial curve]. `NCCCCCCNS(=O)(=O)c1cccc2c(Cl)cccc12` was tested, and the Potency was “inactive”. With `CNC(=S)N/N=C(\C)c1ccc(C(C)(C)C)cc1` the Potency was inconclusive: 28.2 µM [inhibitor, single point]. `CN1CCc2cccc3c2[C@@H]1Cc1ccc(O)c(O)c1-3` was tested, and the Potency was inconclusive: 39.8 µM [inhibitor, single point]. `COCCN=c1scc(-c2ccccc2)n1/N=C/c1c[nH]c2ccccc12` was tested, and the Potency was “inactive”. `Cc1cc2ccccc2nc1SCC(=O)Nc1nc(-c2ccccc2)cs1` was tested, and the Potency was “inactive”. In the case of `N#Cc1c(N)c(C#N)c(-c2ccc(O)cc2)c2c1CCCC2`, the Potency is reported as inconclusive: 15.8 µM [inhibitor, partial curve]. `CC(=O)C(Sc1nc(NC(C)(C)C)nc(N(C)C)n1)C(C)=O` was tested, and the Potency was inconclusive: 1.41 µM [inhibitor, partial curve]. In the case of `CC(C)c1ccc(NC(=S)NCCc2c[nH]c3ccccc23)cc1`, the Potency is reported as inconclusive: 20 µM [inhibitor, partial curve]. In the case of `COc1cc(NC(=S)NCCC(c2ccccc2)c2ccccc2)cc(OC)c1`, the Potency is reported as active: 22.4 µM. `COc1ccc(C(=O)NNC(=S)NC(=O)c2cc(-c3ccccc3)nc3ccccc23)cc1` was tested, and the Potency was inconclusive: 20 µM [inhibitor, single point]. `Cc1ccc(/C=N/NC(=O)c2ccc(Br)o2)s1` was tested, and the Potency was “inactive”. For `COc1cc2[nH]c(=S)n(C3CCCC3)c(=O)c2cc1OC`, the Potency was “inactive”. In the case of `CC(C)c1ccc(/C=C2\CC/C(=C\C=N\N(C)C)C2=O)cc1`, the Potency is reported as inconclusive: 31.6 µM [inhibitor, single point]. For `Cc1ccccc1NC(=O)CSc1nnc(-c2ccco2)c(-c2ccco2)n1`, the Potency was inconclusive: 15.8 µM [inhibitor, partial curve]. `CCCCc1ccc(NC(=S)NCc2cccs2)cc1` was tested, and the Potency was inconclusive: 31.6 µM [inhibitor, single point]. For `CCc1ccc(C2CC(=O)N3CN(c4ccccc4)CSC3=C2C#N)cc1` (stereo not given), the Potency was inconclusive: 15.8 µM [inhibitor, partial curve]. With `COc1cccc(Cn2c(=O)c(-c3ccc(F)c(F)c3)nc3cncnc32)c1` the Potency was “inactive”. In the case of `CCN(CC)c1ccc(/C=N/Nc2ccccc2)c(O)c1`, the Potency is reported as inconclusive: 14.1 µM [inhibitor, partial curve]. In the case of `O=c1c(Cc2ccc(F)cc2)c(O)ccn1C1CC1`, the Potency is reported as “inactive”. `CC1(C)CC(=O)C2=C(C1)OC(N)=C([N+](=O)[O-])C2c1cccs1` (stereo not given) was tested, and the Potency was “inactive”. `COc1ccc(NC(=O)NC(C)(C(F)(F)F)C(F)(F)F)cc1` was tested, and the Potency was “inactive”. For `COc1ccc(S(=O)(=O)NC(C)C(=O)Nc2cccc(C(C)=O)c2)cc1` (stereo not given), the Potency was “inactive”. In the case of `O=c1[nH]c(=O)n(C2CC(O)C(CO)O2)cc1F` (stereo not given), the Potency is reported as “inactive”. With `Cc1c(Cl)cccc1NC(=O)NC1CCCCC1` the Potency was “inactive”. In the case of `O=C(Cn1cnnn1)OCC(=O)c1ccc(Cl)s1`, the Potency is reported as inconclusive: 14.1 µM [inhibitor, partial curve]. With `CCOC(=O)NC(=O)/C(C#N)=N\Nc1ccc(Cl)cc1` the Potency was inconclusive: 1.78 µM [inhibitor, full curve]. `COc1cccc(NC(=S)N/N=C2\CC(C)(C)Oc3ccc(O)cc32)c1` was tested, and the Potency was inconclusive: 25.1 µM [inhibitor, single point]. For `Fc1ccc(NC(=S)NCCc2ccccc2)c(F)c1F`, the Potency was active: 15.8 µM. With `C/C(=C\c1ccco1)C1Nc2cccc3cccc(c23)N1` the Potency was inconclusive: 11.2 µM [inhibitor, partial curve]. With `CCN(Cc1ccccc1)c1ccc(/C=N/NC(=S)NC(C)C)cc1` the Potency was inconclusive: 22.4 µM [inhibitor, partial curve]. In the case of `CC(C)CNC(=S)Nc1ccc(Oc2ccccc2)cc1`, the Potency is reported as inconclusive: 31.6 µM [inhibitor, single point]. For `CN1CCN(Cc2cc(COCc3ccccc3)c3cccnc3c2O)CC1`, the Potency was inconclusive: 1.78 µM [inhibitor, partial curve]. In the case of `COc1cc(/C=C/C(=O)OCC(=O)N2CCN(C(=O)c3ccco3)CC2)ccc1O`, the Potency is reported as “inactive”. With `COC(=O)c1ccccc1NC(=S)NC(=O)C1CCCCC1` the Potency was inconclusive: 28.2 µM [inhibitor, single point]. `Cc1ccc(CNC(=O)COC(=O)CCCOc2ccc(Cl)cc2Cl)cc1` was tested, and the Potency was “inactive”. In the case of `Cc1occc1-c1nnc(SCC(=O)N2CCOCC2)n1CCc1ccccc1`, the Potency is reported as “inactive”.
